Test results as given in PubChem BioAssay AID445 (National Center for Advancing Translational Sciences (NCATS), 2006).
In all, about 110,000 compounds went through this assay and about 40 (0.04%) were called active. The shares of active, inactive and inconclusive entries below differ from those in the screen. Calls come from the whole dose curve; as a rule, active = well fitted curve in the direction sought with a large enough effect in the signal ratio (not every such curve was filed as active); inconclusive = small, poorly fitted or top-dose-only effect, or a change in a side signal; inactive = flat fitted curve, though single readings scatter; the % refers to the signal ratio. Where the call is inconclusive, the potency comes from a doubtful curve fit.

experiment: IkB Signaling; settings: ABC-DLBCL IkBa-CBG/CBR dual luciferase ratio (green luciferase fused to IkBa over red control in OCI-Ly3 lymphoma cells), 4 h; IkBa stabilization activation: at 57.1 µM (top of the series), scaled: untreated 0%, proteasome inhibitor 100% unless noted;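 for IkBa stabilization activation: 0% = basal untreated cells and 100% = reference inhibitor full response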
How it was run: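 In this assay, an IκBα–CBG68 fusion accumulates when IKK-driven degradation is blocked; native CBR normalizes for cell number. OCI-Ly3 cells were treated 4 h with compound and doxycycline, then green and red light read after Chroma-Glo addition.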
Potency is the fitted concentration of half-maximal effect.

| SMILES | IkBa stabilization activation | Potency |
| --- | --- | --- |
| C[C@@]12CC(=O)[C@@H]3[C@@H](CCC4=CC(=O)CC[C@]43C)[C@@H]1CC=C2CC(=O)O | inactive: 0.802% [at 11.4 µM, scaled: untreated 0%, proteasome inhibitor 100%] | – |
| CC(C)c1ccc(-c2noc(SCC(=O)N(C)c3ccc(F)cc3)n2)cc1 | inactive: 4.19% | – |
| CC(=O)N1CCCc2ccc(NC(=O)c3ccc(C(F)(F)F)cc3)cc21 | inactive: -0.848% | – |
| Cc1ccccc1-c1noc(-c2ccc(N3CCCC3)c([N+](=O)[O-])c2)n1 | inconclusive: 1.19% [signal inhibitor] | – |
| O=C(c1ccc(S(=O)(=O)N2CCCC2)cc1)N1CCN(Cc2ccc3c(c2)OCO3)CC1 | inconclusive: 3.25% [signal inhibitor] | – |
| O=C(NCc1cccnc1)C1CCN(Cc2cc3ccccc3n2Cc2ccccc2)CC1 | inactive: 0.486% | – |
| CCN(CC)Cc1cc(Nc2ccnc3cc(Cl)ccc23)ccc1O | inactive: 0.963% [at 25.6 µM, scaled: untreated 0%, proteasome inhibitor 100%] | – |
| COc1ccc(OC)c(C(=O)C2COC(=O)C2)c1 (stereo not given) | inconclusive: 2.95% [signal inhibitor] | – |
| COc1cccc(-n2c(SCC(=O)NCCC3=CCCCC3)nc3n[nH]c(C)c3c2=N)c1 | inconclusive: -2.33% [signal inhibitor] | – |
| N#C/C(=C/c1ccc(N2CCCCCC2)o1)c1ccc(F)cc1 | inconclusive: -2.77% [signal inhibitor] | – |
| O=C1CC(c2ccc(F)cc2)Cc2nc(N3CCOCC3)ncc21 (stereo not given) | inactive: -1.25% | – |
| CCS(=O)(=O)N1Cc2ccccc2CC1C(=O)N1CCN(c2cccc(C)c2C)CC1 (stereo not given) | inconclusive: 1.95% [signal inhibitor] | – |
| O=C(O)c1c2c(nc3ccc(S(=O)(=O)N4CCC(C(=O)NCc5ccc(Cl)cc5)CC4)cc13)CCCC2 | inconclusive: 0.62% [signal inhibitor] | – |
| O=C(Nc1nc2ccccc2[nH]1)c1ccccc1F | – | inconclusive: 10 µM [signal inhibitor, partial curve] |
| COc1cc(/C=C/c2nc3cc(Cl)ccc3c(=O)n2-c2ccc(C)cc2C)cc(OC)c1OC | inconclusive: 1.76% [signal inhibitor] | – |
| O=C(CCCC1=NS(=O)(=O)c2ccccc2N1)N1CCN(c2ccc(Cl)cc2)CC1 | inconclusive: 8.93% [signal inhibitor] | – |
| COc1ccc(S(=O)(=O)NCC(c2ccco2)N2CCN(c3ccccc3F)CC2)cc1C (stereo not given) | inconclusive: 1.13% [signal inhibitor] | – |
| N#Cc1cc2cc3c(cc2nc1SCC(=O)OC1CCCCC1)OCO3 | inactive: 0.148% | – |
| COc1ccc(NC(=O)C=C(C)C)cc1Cl | inactive: 0.122% | – |
| Cc1onc(-c2ccccc2)c1C(N)=O | inconclusive: 5.55% [signal activator] | – |
